The subject of this assay is 624824-186-R-J3-PDC multicell spheroids, viability. Nature of the assay: Anticancer human tumor 624824-186-R-J3-PDC patient-derived colon adenocarcinoma cell line growth inhibition [PI3K]. The conditions noted are these: for viability, T/C: stronger effect = lower value. The source says: Combinatorial screen of targeted agents with the PI3K inhibitors inavolisib, alpelisib, duvelisib, and copanlisib in multi-cell type tumor spheroids
A high-throughput screen of multi-cell type tumor spheroids was designed to identify active combinations of targeted small molecules and PI3K pathway inhibitors. Complex spheroids include a stromal component modeled by human endothelial cells (HUVEC) and fibroblasts modeled by human mesenchymal stem cells (MSCs). The concentration ranges selected for each drug and investigational agent were based upon clinically achievable concentrations if the clinical Cmax of the agent was known.
Compounds. The drugs and investigational agents: inavolisib (NSC800729), alpelisib (NSC765974), duvelisib (NSC772469), copanlisib (NSC816437), ipatasertib (NSC767898), afuresertib (NSC778305), talazoparib (NSC767125), sapanisertib (NSC764658), selumetinib (NSC741078), tovorafenib (DAY101, NSC766906), vemurafenib (NSC761431), ravoxertinib (NSC781343), sotorasib (NSC818433), MRTX1133 (NSC 836407), abemaciclib (NSC 768073), palbociclib (NSC758247), venetoclax (NSC 766270), SY5609 (NSC837396), enzalutamide (NSC755605), and darolutamide (NSC825331), were obtained from the National Cancer Institute (NCI) Developmental Therapeutics Program Chemical Repository. The FDA-approved anticancer drug set is available from the NCI Developmental Therapeutics Program. […] The stock solutions were prepared in dimethyl sulfoxide (DMSO, Sigma-Aldrich, St. Louis, MO, cat. D2650) at 800-fold the tested concentration and stored at -70 degrees C prior to their use. All drugs and investigational agents were tested over a range starting from a high concentration at or near the clinical Cmax and decreasing in half-log increments. If the clinical Cmax for an agent had not been determined, the highest concentration tested was 10 microM.
Cell Culture. All cells were maintained in an incubator at 37 degrees C and 5% CO2 with 95% humidity. The PDC lines were cultured according to standard operating procedures established by the NCI PDMR (https://pdmr.cancer.gov/sops/default.htm). All PDCs were thawed and cultured in Matrigel-coated flasks prepared with a working solution of 1X Ham's F-12 nutrient mix, without supplementation (Invitrogen, Waltham, MA, cat. 11765054), 100 U/mL penicillin-streptomycin (Invitrogen, cat. 15140122), and 2.5% Matrigel (Corning Inc., Corning, NY, cat. 354248) for the first three passages. The 354836-022-R-J1-PDC, 475296-252-R-J1-PDC, and 997726-040-R-J2-PDC lines were cultured in 6A media, which includes advanced DMEM/F-12 (Thermo Fisher Scientific, cat. 12634028), 10 mM HEPES (Thermo Fisher Scientific, cat. 15630080), 1X GlutaMAX supplement (Thermo Fisher Scientific, cat. 35050061), 0.1 mg/mL primocin (InvivoGen, San Diego, CA, cat. ant-pm-2), 10% defined fetal bovine serum, heat inactivated (HyClone Laboratories Inc., Logan, UT, cat. SH30070.03HI), 50% L-WRN conditioned media (ATCC, cat. CRL-3276), 1.25 mM N-Acetyl-L-cysteine (Sigma-Aldrich, cat. A9165), 10 mM nicotinamide (Sigma-Aldrich, cat. N0636), 1X B-27 supplement (Thermo Fisher Scientific, cat. 17504044), 1X N-2 supplement (Thermo Fisher Scientific, cat. 17502048), and 10 microM Y-27632 dihydrochloride (Tocris Bioscience, Bristol, United Kingdom, cat. 1254). The 624824-186-R-J2-PDC line was cultured in 6C/Colon 1B media, which includes all 6A media components plus 50 ng/mL human EGF recombinant protein (Thermo Fisher Scientific, cat. PHG0311). […]

These results are taken from PubChem BioAssay AID1963977 (Molecular Pharmacology Branch, DTP, NCI, 2024).

As a reminder, the IC50 is the concentration at which inhibition is half-maximal. In general, viability, T/C refers to the ratio of treated to control.

The source holds more than one record for some entries. The list is limited to them. The source may hold further records. The values listed for one entry are repeated measurements (runs, samples, wells, individuals or studies).
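Also: spheroids exposed to agents for seven days before luminescence read.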
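For viability, T/C in this document: luminescent signal used as a stand-in for spheroid viability; percent viability relative to DMSO vehicle control wells taken as 100%.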

As for `CC1(C)CCC(CN2CCN(c3ccc(C(=O)NS(=O)(=O)c4ccc(NCC5CCOCC5)c([N+](=O)[O-])c4)c(Oc4cnc5[nH]ccc5c4)c3)CC2)=C(c2ccc(Cl)cc2)C1`, the IC50 (compound alone) is 9.3 µM, 8.3 µM, 8.09 µM, > 10 µM. In addition, the viability, T/C (compound alone 10 µM) was 46.3, 39.6, 38.7, 93.1%.

Consider `CC(Nc1ncnc2nc[nH]c12)c1cc2cccc(Cl)c2c(=O)n1-c1ccccc1` (stereo not given), for which the viability, T/C (compound alone 0.1 µM) was 98, 97.5, 103, 117, 105, 98.9, 89, 110%.

`Cn1ncnc1[C@H]1c2n[nH]c(=O)c3cc(F)cc(c23)N[C@@H]1c1ccc(F)cc1`: where the note is “compound alone 0.00316 µM”, the viability, T/C is reported as 90, 96.9, 119, 91.8%.

`Cn1ncc(Cl)c1-c1cc(C(=O)NC(CN)Cc2cccc(F)c2)sc1Cl` (stereo not given): the viability, T/C (compound alone 10 µM) was 39.7, 72.4, 46.3, 50%.
